In patent US20230257470A1:

Columns and labels:
human FcγRIIa(H) (human) = human FcγRIIa(H) (human) (UniProt P12318); assay: SPR, antibody captured, FcγR as analyte, capture-corrected binding amount
human FcγRIIb (human) = human FcγRIIb (human) (UniProt P31994); assay: SPR, captured antibody, FcγR as analyte
Chain of UniProt P31994 (P31994 43-217 limits assumed): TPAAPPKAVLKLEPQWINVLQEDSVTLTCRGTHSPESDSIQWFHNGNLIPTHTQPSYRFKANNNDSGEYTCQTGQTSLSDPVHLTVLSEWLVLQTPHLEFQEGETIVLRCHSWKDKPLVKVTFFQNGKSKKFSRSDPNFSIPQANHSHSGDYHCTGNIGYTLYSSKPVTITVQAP

Chain of UniProt P12318 (P12318 other isoform, or with tags, fused parts or gaps limits assumed): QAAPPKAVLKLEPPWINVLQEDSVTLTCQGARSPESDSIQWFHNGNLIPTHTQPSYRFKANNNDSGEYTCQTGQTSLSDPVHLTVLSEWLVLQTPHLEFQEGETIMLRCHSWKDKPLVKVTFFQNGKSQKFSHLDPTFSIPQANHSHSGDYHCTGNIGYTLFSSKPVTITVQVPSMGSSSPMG

B1: GpH7-B3 N325V/GpL16-k0 (antibody, human IgG1)
heavy: QVQLVQSGAEVKKPGASVTVSCKASGYTFTDYEMHWIRQPPGEGLEWIGAIDPKTGDTAYSESFQDRVTLTADKSTSTAYMELSSLTSEDTAVYYCTRFYSYTYWGQGTLVTVSS[no letters for human IgG1 constant region with N325V K439E (EU numbers)]
light: DIVMTQSPLSLPVTPGEPASISCQASESLVHSNRNTYLHWYLQKPGQSPQLLIYKVSNRFSGVPDRFSGSGSGTDFTLKISRVEAEDVGVYYCSQNTHVPPTFGQGTKVEIE
relative binding activity (% of GpH7-B3/GpL16-k0) (human FcγRIIa(H) (human)): 9

B2: GpH7-B3 N325I/GpL16-k0 (antibody, human IgG1)
heavy: QVQLVQSGAEVKKPGASVTVSCKASGYTFTDYEMHWIRQPPGEGLEWIGAIDPKTGDTAYSESFQDRVTLTADKSTSTAYMELSSLTSEDTAVYYCTRFYSYTYWGQGTLVTVSS[no letters for human IgG1 constant region with N325I K439E (EU numbers)]
light: DIVMTQSPLSLPVTPGEPASISCQASESLVHSNRNTYLHWYLQKPGQSPQLLIYKVSNRFSGVPDRFSGSGSGTDFTLKISRVEAEDVGVYYCSQNTHVPPTFGQGTKVEIE
relative binding activity (% of GpH7-B3/GpL16-k0) (human FcγRIIa(H) (human)): 8

B3: GpH7-B3 L328P/GpL16-k0 (antibody, human IgG1)
heavy: QVQLVQSGAEVKKPGASVTVSCKASGYTFTDYEMHWIRQPPGEGLEWIGAIDPKTGDTAYSESFQDRVTLTADKSTSTAYMELSSLTSEDTAVYYCTRFYSYTYWGQGTLVTVSS[no letters for human IgG1 constant region with L328P K439E (EU numbers)]
light: DIVMTQSPLSLPVTPGEPASISCQASESLVHSNRNTYLHWYLQKPGQSPQLLIYKVSNRFSGVPDRFSGSGSGTDFTLKISRVEAEDVGVYYCSQNTHVPPTFGQGTKVEIE
relative binding activity (% of GpH7-B3/GpL16-k0) (human FcγRIIa(H) (human)): 8

B4: GpH7-B3 variant P238T/GpL16-k0 (antibody, human IgG1)
heavy: QVQLVQSGAEVKKPGASVTVSCKASGYTFTDYEMHWIRQPPGEGLEWIGAIDPKTGDTAYSESFQDRVTLTADKSTSTAYMELSSLTSEDTAVYYCTRFYSYTYWGQGTLVTVSS[no letters for human IgG1 constant region with P238T K439E (EU numbers)]
light: DIVMTQSPLSLPVTPGEPASISCQASESLVHSNRNTYLHWYLQKPGQSPQLLIYKVSNRFSGVPDRFSGSGSGTDFTLKISRVEAEDVGVYYCSQNTHVPPTFGQGTKVEIE
relative binding activity (% of GpH7-B3/GpL16-k0) (human FcγRIIb (human)): 8
